Several values for one entry are separate records, joined by “and”; a condition that tells them apart may be missing. Identical values can stand only once. About 1,200 (2.5%) of roughly 48,000 compounds were called active. Not shown: some 2% with an inconclusive outcome.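 The calls were made as follows: active = activation of at least 60% and not above a set upper limit (about 1 call in 100 departs from these limits); inconclusive = activation of 40% to 60%, or above that upper limit; inactive = activation under 40%.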 This is one part of the list.
These compounds were tested against Probable G-protein coupled receptor 32 (Homo sapiens) (UniProt O75388) (assay: qHTS for Agonists of Human Resolvin D1 Receptor DRV1). Conditions: CHO-K1 GPR32 beta-arrestin PathHunter luminescence, 90 min; at 76.9 µM; hits give high values; zero percent set by DMSO-only wells.
Procedure, shortened: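 Luminescent readout of beta-Gal complementation quantifies ligand-induced beta-arrestin association with GPR32 in CHO-K1 cells; 90 min compound incubation at 37 °C, detection 1 h at room temperature.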
Also: 0% is about no effect.

UniProt O75388, sequence (O75388 whole entry, looked up): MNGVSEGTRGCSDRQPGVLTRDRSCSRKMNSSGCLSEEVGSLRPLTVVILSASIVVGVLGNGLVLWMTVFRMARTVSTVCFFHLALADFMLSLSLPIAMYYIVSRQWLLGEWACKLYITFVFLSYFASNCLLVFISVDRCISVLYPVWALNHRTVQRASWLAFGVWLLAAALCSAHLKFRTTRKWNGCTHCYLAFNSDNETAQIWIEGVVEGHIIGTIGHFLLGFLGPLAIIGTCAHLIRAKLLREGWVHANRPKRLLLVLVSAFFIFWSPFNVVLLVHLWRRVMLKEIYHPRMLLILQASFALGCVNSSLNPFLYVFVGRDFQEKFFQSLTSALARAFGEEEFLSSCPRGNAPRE

activation, inactive:
CCOc1ccc(NC(=O)Cn2ccn(-c3ccc(F)c(F)c3)c(=O)c2=O)cc1 -4.83%
COc1ccc(CNC(=O)c2cccc(-n3cnc4cccnc43)c2C)cc1 -2.74%
COc1cc2ccccc2cc1C(=O)Nc1ccc(Cl)c(-c2nc3ccccc3o2)c1 12.6%
CCOCCSc1c(C)cnc2c1c(=O)n(C)c(=O)n2C 0.0504%
CCC(C)NC(=O)c1ccc2nc(Cc3ccc(OC)cc3)oc2c1 (stereo not drawn) -25.1%
CCn1ccc2cc(S(=O)(=O)N3CCC(C(=O)NCCc4ccc(C)cc4)CC3)ccc21 -14%
COc1ccc(NC(=O)CSCc2cnn(-c3ccccc3)c2-n2cccc2)cc1 -9.73%
COc1cc(C(=O)N2CCN(CCc3ccccn3)CC2)cc(OC)c1OC 19.8%
COc1cc(OC)cc(C(=O)NCC(c2cccs2)S(=O)(=O)c2ccc(F)c(C)c2)c1 (stereo not drawn) -12.2%
COc1ccccc1NC(=O)CN1C(=O)C2(SCC(=O)N2c2ccc(C)c(C)c2)c2ccccc21 (stereo not drawn) 18.7%
CC1=C(c2ccc(C)cc2)S(=O)(=O)N(Cc2ccc(C(=O)Nc3ccc(F)cc3C)cc2)C1=O 0.313%
Cc1cccc(-c2nc3c4ccccc4nc(NCc4ccc(Cl)cc4)n3n2)c1 -1.58%
CC(=O)c1ccc(NC(=O)CSc2cn(CC(=O)N3CCCCCC3)c3ccccc23)cc1 -5.29%
CCc1ccc2oc(-c3cc(NC(=O)C(C)C)cc(C)c3O)nc2c1 7.15%
COc1ccc(NC(=O)CSc2oc(-c3ccco3)nc2S(=O)(=O)c2ccc(Br)cc2)c(OC)c1 -11.1%
COc1ccc(-c2cc(C(=O)NCc3ccc(F)cc3)c3c(-c4ccc(F)cc4)[nH]nc3n2)cc1OC -3.9%
CC(C)Cn1c(=O)c2sccc2n2c(CCCC(=O)NCc3ccccc3Cl)nnc12 -11.1%
COc1cccc(CNC(=O)C2CCN(S(=O)(=O)c3cn(C)cn3)CC2)c1 -11.9%
CC(=O)N1c2ccc(S(=O)(=O)N3CCCCCC3)cc2CC1C(=O)NCc1ccc(Cl)cc1 (stereo not drawn) -4.48%
CCOC(=O)N1CCC(NC(=O)c2cnn(-c3cccc(Cl)c3C)c2C2CCN(C(=O)OC(C)(C)C)CC2)CC1 8.54%
CCCOc1ccc(-c2nonc2NC(=O)c2oc3ccc(C)cc3c2C)cc1OCCC -4.27%
O=C(Cn1cc(SCc2ccc(C(F)(F)F)cc2)c2ccccc21)N1CCCC1 -6.49%
CCc1sc(Nc2cccc(Cl)c2C)nc1-c1cc2cccc(OC)c2oc1=O -32.6%
COc1cccc(CN2CCc3nc(N4CCN(c5ncccn5)CC4)ncc3C2)c1 -14.8%
Oc1ccc(Cl)cc1C1=Nc2ccccc2N=C(c2cccc(Br)c2)C1 -4.62%
CN1CCN(c2nc3c(S(=O)(=O)c4ccc(Br)cc4)nnn3c3ccsc23)CC1 -0.768%
COc1ccc(OC)c(NC(=O)c2cc(CN3CCCC3)on2)c1 -15.9%
S=c1nc[nH]c2nc[nH]c12 -0.834%
COc1cc(OC)c(NC(=O)NCc2ccc3c(c2)CCN3C(=O)c2ccccc2)cc1Cl -11.7%
COC(=O)c1sc2cccc(F)c2c1S(=O)(=O)N1CCN(c2ccc(F)cc2)CC1 -28.6%
Cc1nc2nc(SCC(=O)NCCc3ccc(Cl)cc3)nn2c(C)c1Cc1ccccc1 -0.701%
CCCSc1ncc(Cl)c(C(=O)Nc2nc3ccc(OCC)cc3s2)n1 -13%
Cc1ccc(CNC(=O)c2ccc3c(=O)n(-c4ccccc4)c(=O)[nH]c3c2)cc1 -6.94%
COc1ccc2c(c1)CCc1c(C(=O)Nc3c(C)nn(Cc4ccc(Cl)c(Cl)c4)c3C)noc1-2 -2.89%
Cc1ccc(S(=O)(=O)c2nc(-c3cccc(C)c3)oc2N2CCN(c3ccccc3)CC2)cc1 -9.74%
Cc1ccc2c(c1)cc1c(=O)n(CC(=O)NC3CCCCC3)nc(C)n12 -3.13%
CC(=O)c1cc(C(=O)Nc2cc(C)cc(C)c2)c2ccccn12 -4.03%
COC(=O)C(CCSC)NC(=O)c1cc2c(n(-c3ccc(C)cc3)c1=O)CC(C)(C)CC2=O (stereo not drawn) 1.55%
CCc1ccccc1NC(=O)CSc1nc(-c2ccccc2OC)nc2c1Cc1c(CO)cnc(C)c1O2 -28.3%
Cc1cccn2c(=O)c3cc(C(=O)NCc4ccccc4)c(=N)n(CCOCCO)c3nc12 3.91%
CCOC(=O)CC1c2cc(OCC)c(OCC)cc2CCN1C(=O)Nc1cccc(Cl)c1 (stereo not drawn) -20.9%
CCCc1ccc(S(=O)(=O)N2CCC(Oc3ccc(-n4cnnn4)cc3)CC2)cc1 2.05%
CNC1(C)C2CCC(C2)C1(C)C (stereo not drawn) -10.5% and 1.59%
CCOC(=O)c1[nH]c(C)c(CCC(=O)NCc2ccccc2Cl)c1C -12.6%
CNC(=O)c1ccc(Nc2nnc(-c3ccc(C)c(S(=O)(=O)N(C)C)c3)c3ccccc23)cc1 6.03%
Cc1ccc(NC(=O)CSc2nc(=O)n(CCCN(C)C)c3c2CCC3)cc1F -10.1%
O=C(NCc1ccccc1)c1ccc2c(c1)CCN2S(=O)(=O)c1ccccc1 -24.4%
CCC(=O)Nc1ccc(-c2nnc3c4ccccc4c(C)nn23)cc1 -0.898%
NC(=O)C1(N2CCCCC2)CCN(CCCC(=O)c2ccc(F)cc2)CC1 3.09%
COc1ccc(CCNC(=O)CCCn2c(=O)c3ccccc3n(Cc3c(C)cc(C)cc3C)c2=O)cc1OC 1.56%
CCC(=O)N1c2ccc(S(=O)(=O)N3CCC(C)CC3)cc2CC1C (stereo not drawn) -8.29%
CCCCC(CC)CNC(=O)C1CCC(CNS(=O)(=O)c2cccc3nsnc23)CC1 (stereo not drawn) 20.4%

activation, active:
O=C(CC1C(=O)OCCN1Cc1ccccc1)Nc1cccc(C(F)(F)F)c1 (stereo not drawn) 112%

From PubChem BioAssay AID1346428 (National Center for Advancing Translational Sciences (NCATS), 2018)
